# From paper PMC12136788
# The list shows a part of the results.
# B1: chr5:174939138:174939139:+_ENSG00000164466_ENST00000321442|hu_mus|motif|central (ssRNA)
# RNA: GGGAGUUCUACAGUCCGACGAUCACCAACCUUCAGCUCCCUUUGUCUCAUCAGUGGGAUGUUAAUGCAGUUAGCAGCAGCGGCAGCAGCGAAGGGAACAAAACGUCCUAUCAGUGGGGAGACACGCUUGGUUAAGGCAUUGAGCAACAGAGGAUUGAGCAUCA
# B2: chr17:65740002:65740003:+_ENSG00000130935_ENST00000581375|hu_hu|hu_hu_hu_mus_False|88_88 (ssRNA)
# RNA: GGGAGUUCUACAGUCCGACGAUCAACAAAUCUUUCUUCCCUGGACGCAAGAGUUCAUUCAUAUUAAAAAAAAUAUAUAUCCAUCAAGUUAGGUGUGGUGGCCACACCUUUACUCCCAGCACUUUGGGAGGUGGAUCUCUGAGUCAACAGAGGAUUGAGCAUCA
# B3: 19493532_19493652_4060_CDS_ENSG00000127481_ENST00000375254|human|control|control (ssRNA)
# RNA: GGGAGUUCUACAGUCCGACGAUCAUUGGCCAGAAUGUUGUAACAACCAGUGAUCAGCUUCUCAUAAACACGAGCCAAGAACUCAUCAGACUCAGCAGGGCCCAAGAUGCGUUCCAGGGAGUUGCUACUGAUCUCGGCAACACUCAACAGAGGAUUGAGCAUCA
# B4: chr8:117878989:117878990:-_ENSG00000164754_ENST00000297338|hu_hu|hu_hu_hu_mus_True|58_68 (ssRNA)
# RNA: GGGAGUUCUACAGUCCGACGAUCCCAGAGGCCCUCGUUUACUGAGGACAAAAUGUGCGUAGAACAUUGUUCUGGCUGGCUAUGAAAUAAGAAGAAACCUGGAUCUCGGCGGGGAGCCGGGAGGGGUGGGUGGCCCGGGGAGGGCAACAGAGGAUUGAGCAUCA
# B5: chr7:149068622:149068623:-_ENSMUSG00000025139_ENSMUST00000001950|mus_hu|mus_mus_mus_hu_False|18_88 (ssRNA)
# RNA: GGGAGUUCUACAGUCCGACGAUCGUGAGGCCUCUGAGUGUGGCUUGUGCUCUGCAGUGGGUUAGAGUUGUUAAUAUCACGGAACAUACCAUCUAGAACGUUCCAGUCCCGCCUGACCAUCCACCCUCCAAUGGAGAAGAAAUCCAACAGAGGAUUGAGCAUCA
# B6: chrX:161375010:161375011:-_ENSMUSG00000061778_ENSMUST00000112247|mus_mus|FALSE|FALSE (ssRNA)
# RNA: GGGAGUUCUACAGUCCGACGAUCCAUCUGGAGGUGGCAAACUGAAACAGAAAAACCCACAUUAAGACAAAGCAUCACACUAGUGUCCCUUUAAGGUUUUCUUUCCUCGGCCGACUUCUUAAGGAGCUCCAUUACAUCACUCCUCAACAGAGGAUUGAGCAUCA
# Target: T1, UNK ZnF1-3 (human, UniProt Q9C0B0 31-174)
# T1 sequence: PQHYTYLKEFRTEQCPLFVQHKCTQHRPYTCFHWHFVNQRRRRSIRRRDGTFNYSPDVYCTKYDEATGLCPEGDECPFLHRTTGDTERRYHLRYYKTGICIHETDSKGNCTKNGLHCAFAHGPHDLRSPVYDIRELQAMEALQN
# Assay: nsRBNS (natural sequence RNA bind-n-seq); RBNS binding buffer (assumed for nsRBNS): 25 mM Tris pH 7.5, 150 mM KCl, 3 mM MgCl2, 0.01% Triton X-100, 500 ug/ml BSA, 20 U/ml SUPERase-In, 4 C; UNK is unkempt and MSI1 is Musashi-1; names of the RNAs are library labels; protein concentration not given here; high values mean tight binding
row,Binder,binding signal [enrichment R]
1,B1,1.95
2,B2,0.993
3,B3,0.689
4,B4,1.84
5,B5,0.787
6,B6,1.18
